Each structure is given as a SMILES string. In all, about 310,000 compounds went through this assay and about 14,000 (4.5%) showed an effect of 50% or more. Effects have a minus sign here. The list shows a part of the results.
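Further: peak tail current of the secondary pulse compared with the same well before compound.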

This assay deals with human ether-à-go-go-related gene (hERG) potassium channel (human, UniProt Q12809). In words: primary screen, population patch clamp on CHO cells stably expressing hERG.
human ether-à-go-go-related gene (hERG) potassium channel, sequence (Q12809 whole entry, looked up): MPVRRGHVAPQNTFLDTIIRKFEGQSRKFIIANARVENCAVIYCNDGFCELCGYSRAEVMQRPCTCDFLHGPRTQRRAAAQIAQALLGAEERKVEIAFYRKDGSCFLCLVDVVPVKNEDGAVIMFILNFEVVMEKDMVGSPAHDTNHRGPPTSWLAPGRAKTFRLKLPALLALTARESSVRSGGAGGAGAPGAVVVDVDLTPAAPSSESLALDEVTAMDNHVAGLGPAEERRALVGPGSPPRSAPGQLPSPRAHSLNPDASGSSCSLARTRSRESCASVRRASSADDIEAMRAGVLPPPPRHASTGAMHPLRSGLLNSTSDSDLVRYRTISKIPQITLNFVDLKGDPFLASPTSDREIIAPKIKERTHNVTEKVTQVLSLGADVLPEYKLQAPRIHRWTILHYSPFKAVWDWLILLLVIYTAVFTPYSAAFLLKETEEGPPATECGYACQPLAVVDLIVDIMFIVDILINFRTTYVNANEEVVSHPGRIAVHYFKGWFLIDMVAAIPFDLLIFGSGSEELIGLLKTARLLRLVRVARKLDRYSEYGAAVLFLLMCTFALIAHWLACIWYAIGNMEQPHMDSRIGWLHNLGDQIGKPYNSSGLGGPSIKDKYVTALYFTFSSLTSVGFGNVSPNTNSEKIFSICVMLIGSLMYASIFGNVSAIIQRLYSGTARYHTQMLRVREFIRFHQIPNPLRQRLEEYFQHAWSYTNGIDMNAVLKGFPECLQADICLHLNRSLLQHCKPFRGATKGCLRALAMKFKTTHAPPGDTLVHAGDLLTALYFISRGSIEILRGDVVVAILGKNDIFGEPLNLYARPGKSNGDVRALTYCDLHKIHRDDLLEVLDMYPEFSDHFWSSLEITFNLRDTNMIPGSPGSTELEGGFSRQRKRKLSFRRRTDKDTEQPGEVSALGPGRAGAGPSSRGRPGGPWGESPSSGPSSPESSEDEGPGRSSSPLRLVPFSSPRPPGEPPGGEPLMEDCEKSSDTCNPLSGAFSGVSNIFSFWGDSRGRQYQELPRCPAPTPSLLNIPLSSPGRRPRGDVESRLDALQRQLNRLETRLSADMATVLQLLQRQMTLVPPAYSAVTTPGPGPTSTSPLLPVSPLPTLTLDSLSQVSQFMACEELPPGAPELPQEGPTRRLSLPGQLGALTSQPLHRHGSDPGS
`CCc1ccc(N/C(SCc2cccc(F)c2)=C(/C#N)C(=O)NCc2ccco2)cc1`: the “hERG current change (%, negative = inhibition) at 10uM” value came out at 11.7%. Then `Cc1ccccc1C(=O)NNC(=S)Nc1cccc(C(F)(F)F)c1`, with -3.18%; and `CC(C)COP(=O)(c1ccc(N(C)C)cc1)C(O)c1cccnc1` (stereo not drawn), with 3.26%.

As to `O=C(CCN1CCOCC1)c1ccc2c(c1)OCCO2`, the “hERG current change (%, negative = inhibition) at 10uM” value is recorded as 9.96%. Take `CCSc1nnc(NC(=O)COc2ccc3ccccc3c2)s1`: the “hERG current change (%, negative = inhibition) at 10uM” value was found to be 5.6%. For `O=C(Nc1cccc(-c2nc3ccccc3s2)c1)c1ccc2c(c1)OCO2`, the “hERG current change (%, negative = inhibition) at 10uM” value was -35.5%.

`CC(NCC(=O)Nc1ccccc1C(=O)NC1CC1)c1cccc(C(F)(F)F)c1` (stereo not drawn): the “hERG current change (%, negative = inhibition) at 10uM” value was -34.5%.

For the compound `Cc1ccc(NC(=O)CN2C(=O)CSC2=O)cc1`, the “hERG current change (%, negative = inhibition) at 10uM” value is reported as 9.05%. The same measure for `CC(Sc1nnc(Cc2ccc([N+](=O)[O-])cc2)o1)C(N)=O` (stereo not drawn): -7.47%; for `CCC(=O)N(Cc1ccco1)c1nc(C(=O)Nc2ccc(Cl)cc2)c(C)s1`: -5.99%; for `O=C(COC(=O)/C=C/c1ccccc1Cl)NC1CCCCCC1`: 31.4%. Turning to `COc1ccc2[nH]cc(C(=O)CN3CC(C)CC(C)C3)c2c1` (stereo not drawn), the “hERG current change (%, negative = inhibition) at 10uM” value is -3.25%. The same measure for `Cc1cccc(NC(=O)c2cc(=O)[nH]c3ccccc23)c1`: 6.25%; for `O=C(CNC(=O)c1cccs1)NCC(=O)OCc1ccccc1Br`: -12.1%; for `COc1ccc(NS(=O)(=O)c2ccc3c(c2)Cc2ccccc2-3)cn1`: 5.85%.

Regarding `COc1ccc(S(=O)(=O)Nc2ccc3c(c2)OCCO3)cc1OC`, the “hERG current change (%, negative = inhibition) at 10uM” value is given as 11.9%. Then `COc1ccc(C(=O)N2CCN(C(=O)C3COc4ccccc4O3)CC2)cc1OC` (stereo not drawn), with -30.3%; and `CCN(CC)S(=O)(=O)c1ccc(-c2csc(C)n2)s1`, with -0.336%; and `CCn1c(SCC(=O)c2cc(C)n(C)c2C)nnc1-c1ccccc1`, with 3.91%. The same measure for `CCC(C)OC(=O)C(C)Oc1ccc(-c2ccccc2)cc1` (stereo not drawn): 2.51%; for `O=C(Nc1cccc(S(=O)(=O)Nc2ccc(Cl)cc2)c1)c1ccc[n+]([O-])c1`: 8.99%; for `CC(NC(=O)COC(=O)CNC(=O)C1CCCCC1)c1ccccc1` (stereo not drawn): -3.81%. Then `CC(C)c1ccc(NC2CCCN(C(=O)c3ccnn3C)C2)cc1` (stereo not drawn), with 1.35%; and `COc1cccc(N2CCN(Cc3nc4ccccc4c(=O)[nH]3)CC2)c1`, with -18.9%. Take `CN(C)S(=O)(=O)c1ccc(Cl)c(NC(=O)COC(=O)c2ccc3c(c2)NC(=O)CS3)c1`: the “hERG current change (%, negative = inhibition) at 10uM” value is reported as -2.84%. Then `Cc1ccccc1N1CCN(C(=S)c2ccc(-c3ccc([N+](=O)[O-])cc3)o2)CC1`, with 20.2%; and `CCC(=O)Nc1nnc(SCC(=O)c2ccc3c(c2)Cc2ccccc2-3)s1`, with 1.45%; and `COC(=O)C/C=C/[C@@H](C)[C@@H](/C=N/OC[C@@H](C)[C@H](OCc1ccccc1)C(C)C)NS(=O)(=O)c1ccc(C)cc1`, with 0.868%. As for `CC(C)NC(=O)c1onc(CSc2ccncc2)c1C(=O)NC(C)C`, the “hERG current change (%, negative = inhibition) at 10uM” value was 3.18%. The same measure for `O=C(NCc1ccc(F)cc1)C(c1ccco1)N(C(=O)c1csnn1)c1ccccc1` (stereo not drawn): -4.77%. Turning to `CCCCNC(=O)CC(=O)Nc1ccccc1C(=O)O`, the “hERG current change (%, negative = inhibition) at 10uM” value came out at 4.41%. Then `Cc1cc2occ(CC(=O)NC3(C)CCS(=O)(=O)C3)c2cc1C` (stereo not drawn), with -8.43%; and `Cc1nnc(SCC(=O)NNC(=O)CC#N)[nH]c1=O`, with -7.01%. Then `COC(=O)c1ccc(-n2cnc(Cl)n2)c(F)c1`, with -7.27%; and `COc1cc(OC)cc(-c2c(-c3cccs3)c3cc(-c4cccc5[nH]ccc45)ccc3n2C)c1`, with 8%. Then `CCC(C)NC(=O)c1cc(-c2cccs2)nc2ccccc12` (stereo not drawn), with 22.7%. Turning to `CCC(C)(NC(=O)c1cccc(N2C(=O)CSC2c2ccccc2)c1)C(=O)Nc1ccccc1C` (stereo not drawn), the “hERG current change (%, negative = inhibition) at 10uM” value was -24.3%. The same measure for `Cc1ccccc1OCc1nc2c3cnn(C)c3ncn2n1`: 8.91%; for `COC(=O)c1cc(NC(=O)C2C3C=CC(C3)C2C(=O)O)cc(C(=O)OC)c1` (stereo not drawn): -0.345%; for `CCC(c1nnnn1C1CCCCC1)N1CCN(C(=O)c2ccco2)CC1.Cl` (stereo not drawn): -11.4%.

`Cc1nc(=O)c(-c2ccccc2)c(C)n1-c1ccccc1O`: the “hERG current change (%, negative = inhibition) at 10uM” value is given as 3.54%. The same measure for `CCSc1nnc([C@@H](NC(=O)OC(C)(C)C)C(C)C)o1`: 6.24%. The same measure for `COc1ccc(C(C)(C)C)cc1S(=O)(=O)N1CCC(C(N)=O)CC1`: 13%. Then `CCN1C(=O)N(C)[C@@H](c2ccccc2)C(C(=O)OC)=C1C`, with -0.217%; and `CCOc1cccc(CNCc2cccnc2)c1OCc1ccccc1.Cl`, with -19.7%. Consider `Cn1c(NC(=O)C2c3ccccc3Oc3ccccc32)cc(=O)n(C)c1=O`, for which the “hERG current change (%, negative = inhibition) at 10uM” value is recorded as -3.72%. Then `O=c1cc(NCc2ccccc2)nc2ccccn12`, with 8.39%; and `CCOC(=O)c1c(C)[nH]c(C(=O)CSc2nnc(Nc3ccccc3F)s2)c1C`, with -7.48%. Then `CC1(NC(=O)CCS(=O)(=O)c2ccc(Cl)cc2)CCS(=O)(=O)C1` (stereo not drawn), with 10.8%; and `CN1CCN(c2ccc([N+](=O)[O-])c(NCc3ccco3)c2)CC1`, with -51.9%. Then `O=C(O/N=C1/CCSc2ccccc21)c1ccccc1`, with 11.8%; and `O=C(NCc1ccco1)/C(=C\c1cccs1)NC(=O)c1cccs1`, with 6.26%; and `CCn1c(C(=O)NC2CCC(C)CC2)cc2sccc21` (stereo not drawn), with 25.1%. `Cc1ccc(S(=O)(=O)NC(=O)Nc2ccccc2F)cc1`: the “hERG current change (%, negative = inhibition) at 10uM” value was found to be 22.1%. The same measure for `Cc1ccc(SC/C(O)=C(\C#N)c2nc3ccccc3s2)cc1`: 29.9%; for `CC1(C)C2CC[C@]3(C)C(CC=C4[C@@H]5C[C@@](C)(CO)[C@@H]6C[C@@]5(CC[C@]43C)C(=O)O6)[C@@]2(C)CC[C@@H]1O` (stereo partly drawn): 19.4%. Then `Cc1ccc(C(=O)CSc2ncn[nH]2)cc1`, with -5.26%; and `CC(C)(C)c1ccc(C(=O)NCCCNC(=O)c2ccccn2)cc1`, with -14%; and `Cc1cccc(Oc2ncc(-c3ccc(Cl)cc3)cn2)c1`, with 5.22%. Then `COC(=O)c1ccc(C(=O)OC)c(-n2c(=O)c3ccccc3c3ccccc3c2=O)c1`, with 6.43%. For the compound `COc1ccc(NC(=O)c2nc[nH]c2C(=O)N2CCN(C(=O)OC(C)(C)C)CC2)cc1`, the “hERG current change (%, negative = inhibition) at 10uM” value is reported as -34.5%.

Consider `CN(C)N=Nc1ccc(S(=O)(=O)NC(Cc2ccccc2)C(=O)O)cc1` (stereo not drawn), for which the “hERG current change (%, negative = inhibition) at 10uM” value worked out at 22.3%.

As for `Cc1nc(N2CCN(c3ccccc3)CC2)nc2c1C(=O)CCC2`, the “hERG current change (%, negative = inhibition) at 10uM” value is reported as -20.1%. For the compound `O=C(CCNS(=O)(=O)c1ccccc1)N1CCCCCC1`, the “hERG current change (%, negative = inhibition) at 10uM” value is reported as 20%.

As to `O=C(c1ccc2c(c1)OCO2)N1CCN(c2ccc(C(F)(F)F)cn2)CC1`, the “hERG current change (%, negative = inhibition) at 10uM” value is listed as -55.6%.

On to `OC[C@@H](O)[C@@H](O)CO`, for which the “hERG current change (%, negative = inhibition) at 10uM” value came to 5.41%.

Regarding `O=C1NC(c2cccnc2)C(C(=O)c2cccs2)C(O)(C(F)(F)F)N1` (stereo not drawn), the “hERG current change (%, negative = inhibition) at 10uM” value is -7.96%. The same measure for `O=C(CSc1nc2ccccc2o1)N1CCOCC1`: 14.6%; for `Cc1c(Cl)cccc1NC(=O)Cn1c(-c2ccc(F)cc2)noc1=O`: 35.4%; for `CC(OC(=O)c1ccc(Cl)cc1)C(=O)NCC1CCCCC1` (stereo not drawn): -3.72%. The same measure for `CCN1C(=O)C(CC(=O)Nc2ccccc2)N(Cc2ccccn2)C1=S` (stereo not drawn): 10.7%; for `O=C(c1ccc2c3c(cccc13)C(=O)N(O)C2=O)N1CCCCC1`: 12.4%; for `COc1ccc(CC(=O)NCc2ccccc2)cc1OC`: 11.7%.

On to `COc1cc2c(cc1NC(=O)c1ccc(C(C)(C)C)cc1)CCCC2`, for which the “hERG current change (%, negative = inhibition) at 10uM” value is recorded as -4.03%. Then `O=C(Nc1ccccc1Cc1ccccc1)c1ccc2c(c1)SC1=NS(=O)(=O)CCN12`, with -5.78%; and `Cc1cccc(C)c1NC(=O)CC1SC2=NCCN2C1=O` (stereo not drawn), with 8.88%. Then `Cl.O=C(O)c1ccc(CNCc2c(Cl)cccc2Cl)cc1`, with -4.27%; and `Cc1ccc(S(=O)(=O)N2CCCN(C(=O)c3cc4ccccc4[nH]3)CC2)cc1`, with -36.6%; and `O=C(CCC(=O)N1CCOc2ccccc21)NCc1ccccn1`, with 12.3%. Then `CC(C)(C)NC(=O)CSc1nc(N)c(NC(=O)c2ccccc2F)c(=O)[nH]1`, with 25.4%; and `CC1CCCCC1NC(=O)CSc1nc2ccccc2[nH]1` (stereo not drawn), with 6.61%; and `Cc1nnc(SCC(=O)Nc2ncc(Cc3ccc(F)cc3)s2)n1N`, with 8.87%. As to `Nc1cc(=O)[nH]c(SCC(=O)Nc2ccc(F)c(Cl)c2)n1`, the “hERG current change (%, negative = inhibition) at 10uM” value is 7.39%. For `COc1cccc(N2CCN(C(=O)CCSCc3ccccc3F)CC2)c1`, the “hERG current change (%, negative = inhibition) at 10uM” value was -57.9%. The same measure for `COc1ccc(NC(=O)CCN2C(=O)c3ccccc3C2=O)cc1`: 12%; for `Cc1ccc(C)c(S(=O)(=O)N/N=C/c2ccc(N(C)C)cc2)c1`: 16.1%. Then `Cc1nn(C)c(C)c1CNC(=O)c1nn2c(c1Cl)NC(c1cccs1)CC2C(F)(F)F` (stereo not drawn), with -18%; and `COc1cc2c(cc1NC(=O)C(c1ccccc1)c1ccccc1)CCCC2`, with 9.32%. The same measure for `CC(=O)NS(=O)(=O)c1cccnc1Nc1ccc(Cl)c(Cl)c1`: 16.1%; for `O=C(N/N=C/C=C/c1ccccc1[N+](=O)[O-])c1cccnc1`: 0.26%.
